Laboratory results: PubChem BioAssay AID488969 (Vanderbilt High Throughput Screening Facility, 2010)
Over roughly 110,000 compounds, “z-score” has its median near -0.1; the highest 2% begin near 2. The list shows a part of the results.

biological target: Metabotropic glutamate receptor 8 (Rattus norvegicus) (UniProt P70579); test: rat mGluR8 modulators via GIRK flux, primary screen, cell-based, thallium flux, HTS (AID 488969); details: HEK293 rat mGluR8, GIRK (G protein-gated inwardly rectifying potassium channel) thallium flux, FluoZin2; at 10 µM; stronger effect = higher value; submaximal glutamate (EC20) added with thallium
Chain of UniProt P70579 (P70579 whole entry, looked up): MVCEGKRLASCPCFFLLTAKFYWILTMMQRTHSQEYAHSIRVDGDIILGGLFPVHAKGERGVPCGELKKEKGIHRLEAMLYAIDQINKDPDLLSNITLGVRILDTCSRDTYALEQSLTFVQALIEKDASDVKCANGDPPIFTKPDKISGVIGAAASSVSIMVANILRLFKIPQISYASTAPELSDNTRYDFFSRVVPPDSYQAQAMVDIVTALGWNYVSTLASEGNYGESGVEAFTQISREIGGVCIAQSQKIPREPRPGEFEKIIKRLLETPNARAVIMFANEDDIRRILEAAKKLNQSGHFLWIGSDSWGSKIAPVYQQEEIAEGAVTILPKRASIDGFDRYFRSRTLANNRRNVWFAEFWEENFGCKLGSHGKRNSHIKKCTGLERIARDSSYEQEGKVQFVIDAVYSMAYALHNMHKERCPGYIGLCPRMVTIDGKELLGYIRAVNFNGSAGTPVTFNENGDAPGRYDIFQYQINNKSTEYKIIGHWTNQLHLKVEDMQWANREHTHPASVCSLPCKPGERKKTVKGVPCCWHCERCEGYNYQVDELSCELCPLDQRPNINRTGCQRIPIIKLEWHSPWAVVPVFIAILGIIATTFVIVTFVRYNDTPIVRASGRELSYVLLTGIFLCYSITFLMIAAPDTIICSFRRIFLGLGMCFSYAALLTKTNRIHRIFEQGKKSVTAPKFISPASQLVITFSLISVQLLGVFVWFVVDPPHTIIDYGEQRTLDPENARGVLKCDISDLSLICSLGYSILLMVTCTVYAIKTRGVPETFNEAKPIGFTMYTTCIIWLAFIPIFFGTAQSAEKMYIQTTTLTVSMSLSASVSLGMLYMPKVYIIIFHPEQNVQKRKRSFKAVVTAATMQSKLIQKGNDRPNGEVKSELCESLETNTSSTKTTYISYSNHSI

Compound | z-score
COCCCNC(CC(=O)Nc1ccccc1C(=O)OC)C(=O)O (stereo unspecified) | 0.0449
Cc1cc(C)n2nc(SCc3cc(=O)n4ccccc4n3)nc2n1 | -0.0377
COCCCNC(=S)N(Cc1ccccc1)Cc1ccccc1 | 0.454
Cc1ccc(C2c3c(-c4ccccc4O)n[nH]c3C(=O)N2Cc2ccncc2)cc1 (stereo unspecified) | 0.0879
O=C(CCl)Nc1ccc(N=Nc2ccccc2)cc1 | -0.201
COC(=O)c1ccc(CNCC(=O)Nc2ccc(C(=O)OC)cc2)cc1 | -0.0376
Cc1oc(-c2ccccc2Cl)nc1CSCC(=O)O | -1.11
COc1ccc(/C=N\NC(=O)/C(=C\Nc2nccc(C)n2)NC(=O)c2ccccc2)cc1 | -0.263
O=C(O)Cn1c(-c2ccccc2)nc2ccccc21 | -0.223
CC(C)c1ccc(/C=C/C(=O)NC2CCCCC2)cc1 | -0.317
CCOc1[nH]n(-c2ccc(Cl)cc2)c(=O)c1C=Nc1ccc(O)cc1 | -2.12
C=CCn1c(SCC(=O)NCc2ccccc2)nnc1-c1ccccc1O | 1.26
COc1ccc(C2/C(=C(\O)c3ccc4c(c3)OCCO4)C(=O)C(=O)N2CCCN(C)C)cc1 (stereo unspecified) | 0.0912
O=C(c1cc(S(=O)(=O)N2CCOCC2)ccc1F)N1CCCc2ccccc21 | 0.285
COC(=O)c1ccc(NC(=O)CN(C)S(=O)(=O)c2ccc(OC)c(C)c2)cc1 | -0.288
CCOc1nc(SCCOc2ccc(C)cc2)nc(N(C)C)n1 | -1.03
COc1ccc(/C=N/NC(=O)c2ccccc2)cc1OS(=O)(=O)c1ccccc1 | -0.359
CCOC(=O)c1cc(-c2ccco2)nc2c1c(C)nn2-c1cccc(Cl)c1 | -0.324
CC(C)Cc1ccc(S(=O)(=O)N2CCOCC2)cc1 | -0.131

Compound | z-score
Cc1cc(C)nc(N(C#N)S(=O)(=O)c2ccc(Br)cc2)n1 | -0.212
CCOc1cc(S(=O)(=O)NCc2ccccc2)ccc1F | 0.0209
Cc1ccc(S(=O)(=O)NCCC2(C(C)C)CCOC(C)(C)C2)cc1 (stereo unspecified) | -0.132
Cn1c(C(=O)NCCCN2CCc3ccccc3C2)cc2c(=O)n(C)c3ccccc3c21 | 0.807
COc1ccc(NC(=O)N2CCN(c3cccc(C(F)(F)F)c3)CC2)cc1OC | -0.422
O=C(NNc1ccc(C2CCCCC2)cc1)C(O)(c1ccccc1)c1cccs1 (stereo unspecified) | 0.285
Cc1ccc2nc(SCC(=O)Nc3ccc4c(c3)OCCO4)[nH]c2c1 | -0.404
O=C(c1ccco1)N1CCCC(c2ccccc2)C1 (stereo unspecified) | -0.388
O=c1[nH]c2cccnc2n1Cc1ccco1 | 0.26
CC(C)N=c1scc(-c2ccco2)n1/N=C/c1ccc(O)c(O)c1 | 1.68
CC(=C/C(=O)O)/C=C/c1cccs1 | -0.429
Cc1nc(N(C)Cc2ccccc2)c2nnn(Cc3ccccc3)c2n1 | -0.549
Cc1ccc(C)c(SCc2noc(C(=O)NCC3CCCO3)c2C(=O)O)c1 (stereo unspecified) | -0.357
CS(=O)(=O)N(CC(=O)Nc1ccccc1C(=O)NCc1ccccc1)c1ccc2c(c1)OCCO2 | 0.0819
Cc1cccc(N(C(=O)c2cnc3n(c2=O)CCS3)C2CCCCC2)c1 | 0.0506
O=C(NCc1ccccc1)c1cnc2n(c1=O)CCS2 | -0.0906
COCCNCC(=O)NC12CC3CC(CC(C3)C1)C2 | -0.237
CCOC(=O)c1cc(-c2nnc(-c3ccc(Oc4ccccc4)cc3)o2)c(C)nc1C | -0.116
CC(NC(=O)COc1ncnc2cc([N+](=O)[O-])ccc12)c1ccccc1 (stereo unspecified) | -0.282

Compound | z-score
CC(C)C1Cc2[nH]c(=O)c(C(=O)O)cc2CO1 (stereo unspecified) | -0.205
CCOC(=O)CN(C(=O)CNC(=O)c1cccs1)C(C(=O)NC1CCCC1)c1cccnc1 (stereo unspecified) | -0.197
O=C(NCCc1c[nH]c2ccccc12)c1ccc([N+](=O)[O-])cc1 | -0.249
Nc1c(C(=O)NCc2ccccc2)sc2nc(N3CCOCC3)c3c(c12)CCCC3 | -0.0483
Cn1c(CCN2CCCCC2)nc2cc(NC(=O)Nc3ccccc3)ccc21 | 0.037
CCCc1cc(=O)[nH]c(/N=C(/NC(=O)c2ccccc2)Nc2ccc3c(c2)OCCO3)n1 | -0.0513
C/C(=N\Nc1nc2ccccc2[nH]1)c1cccs1 | -0.515
Cc1cc(C)cc(NC(=S)N=Nc2c(O)n(C)c3ccc(S(=O)(=O)N4CCOCC4)cc23)c1 | 0.616
CCOC(=O)c1sc(N/N=C/c2cccc(C)c2)nc1C | 0.0699
COc1ccc(S(=O)(=O)N2CCOCC2)cc1NC(=O)COc1ncnc2ccccc12 | -0.0483
CC(C)N1CC=C2C(C#N)=C(N)C(C#N)(C#N)C(c3ccccc3)C2C1 (stereo unspecified) | -2.27
CCCCN(CC)CCNC(=O)c1[nH]c(C)c(C(C)=O)c1C | 0.262
O=C(Nc1ccc(N2CCCC2)c(Cl)c1)c1cccnc1 | -0.187
N#C/C(=C\c1ccc(Cl)cc1)c1nc2ncccc2[nH]1 | -0.709
Cn1c(Cc2cccs2)nnc1SCC(=O)N1CCCc2ccccc21 | -0.115
CCOc1ccc(-n2c(C)nc3c(cnn3-c3ccc(Cl)cc3)c2=O)cc1 | 0.346
Cc1ccc(NC(=O)C(=O)NCCN2CCN(Cc3ccc([N+](=O)[O-])cc3)CC2)cc1 | -0.113
Cc1ccc(-c2nn3c(C)nnc3s2)cc1N | 0.054
